According to PubChem BioAssay (NCATS):
“And” between values parts separate entries of the source, which are not always exact repeats. Identical values can stand only once. This list was built around the results that the source calls inconclusive (neither active nor inactive); the mix of calls is not that of the screen. For some of these results: Potencies beside an inconclusive call are fits to weak or partial responses and may not hold up. The source made the active and inactive calls. Unless noted, the call rests on the fitted dose curve; in most records, active means well fitted curve in the direction sought with a large enough effect; inconclusive means small, poorly fitted or top-dose-only effect, or another doubt; inactive means no such curve, though single readings can be large; an effect the other way counts as inactive or inconclusive.

Experiments:
[1] = Primary qHTS for small molecule stabilizers of the endoplasmic reticulum resident proteome: Secreted ER Calcium Modulated Protein (SERCaMP) assay (AID 1508630); details: SH-SY5Y GLuc-SERCaMP (Gaussia luciferase released on ER calcium loss) secretion, thapsigargin, luminescence; activity change, negative = inhibition: at 38.4 µM (top of the series); further: potency means the concentration at half of the fitted maximal effect; on activity change, negative = inhibition: on the % scale 0 is the no-effect control and ±100 the full control effect
In short: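 GLuc-SERCaMP-expressing SH-SY5Y cells, pretreated 16 h with compound, are challenged with thapsigargin to empty ER calcium stores; after 4 h, coelenterazine is added directly to the medium and luminescence is imaged.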

[2] = target: Cytochrome P450 2D6 (Homo sapiens) (UniProt P10635); assay: Cytochrome P450 family 2 subfamily D member 6 (CYP2D6) small molecule antagonists: luciferase biochemical (cell-free) qHTS assay (AID 1645840; active means well fitted curve in the direction sought with a large enough effect in the repeat runs; inconclusive means weak or mixed curves; inactive means no such curve, though single readings can be large; an effect the other way counts as inactive or inconclusive; further: nearly all actives have a fitted effect of over 55% in size; further: potency means the concentration at half of the fitted maximal effect; on activity change, negative = inhibition: on the % scale 0 is the no-effect control and ±100 the full control effect)
UniProt P10635, sequence (P10635 whole entry, looked up): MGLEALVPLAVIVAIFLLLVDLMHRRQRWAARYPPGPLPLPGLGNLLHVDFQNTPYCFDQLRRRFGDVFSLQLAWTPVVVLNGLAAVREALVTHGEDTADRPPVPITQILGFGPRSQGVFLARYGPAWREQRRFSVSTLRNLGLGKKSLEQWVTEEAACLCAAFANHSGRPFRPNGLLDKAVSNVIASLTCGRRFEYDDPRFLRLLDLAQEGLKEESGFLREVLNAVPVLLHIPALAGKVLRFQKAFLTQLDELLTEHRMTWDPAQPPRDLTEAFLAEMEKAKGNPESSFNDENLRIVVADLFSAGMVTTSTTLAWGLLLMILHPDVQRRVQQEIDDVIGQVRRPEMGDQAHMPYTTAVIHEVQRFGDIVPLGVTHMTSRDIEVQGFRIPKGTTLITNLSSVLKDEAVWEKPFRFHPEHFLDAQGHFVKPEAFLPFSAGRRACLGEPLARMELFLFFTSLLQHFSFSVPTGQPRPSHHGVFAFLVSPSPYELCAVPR
In short: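 P450-Glo luminescent screen: recombinant CYP2D6 enzyme–proluciferin substrate mix preincubated with compound 10 min at room temperature, then NADPH regeneration added for 1 h at room temperature. Detection reagent added for 20 min; luciferin light read as relative luminescence units.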

[3] = Primary qHTS for inhibitors of nuclear receptor binding SET domain protein 2 (NSD2) in an isogenic RCH-ACV NSD2 p.E1099K mutant (9B) (AID 1645876); further: nearly all actives have a fitted effect of over 70% in size; further: potency means the concentration at half of the fitted maximal effect
[4] = target: Cytochrome P450 2C9 (Homo sapiens) (UniProt P11712); assay: Cytochrome P450 family 2 subfamily C member 9 (CYP2C9) small molecule antagonists: luciferase biochemical (cell-free) qHTS assay (AID 1645842; active means well fitted curve in the direction sought with a large enough effect in the repeat runs; inconclusive means weak or mixed curves; inactive means no such curve, though single readings can be large; an effect the other way counts as inactive or inconclusive; further: nearly all actives have a fitted effect of over 55% in size; further: potency means the concentration at half of the fitted maximal effect; on activity change, negative = inhibition: on the % scale 0 is the no-effect control and ±100 the full control effect)
UniProt P11712, sequence (P11712 whole entry, looked up): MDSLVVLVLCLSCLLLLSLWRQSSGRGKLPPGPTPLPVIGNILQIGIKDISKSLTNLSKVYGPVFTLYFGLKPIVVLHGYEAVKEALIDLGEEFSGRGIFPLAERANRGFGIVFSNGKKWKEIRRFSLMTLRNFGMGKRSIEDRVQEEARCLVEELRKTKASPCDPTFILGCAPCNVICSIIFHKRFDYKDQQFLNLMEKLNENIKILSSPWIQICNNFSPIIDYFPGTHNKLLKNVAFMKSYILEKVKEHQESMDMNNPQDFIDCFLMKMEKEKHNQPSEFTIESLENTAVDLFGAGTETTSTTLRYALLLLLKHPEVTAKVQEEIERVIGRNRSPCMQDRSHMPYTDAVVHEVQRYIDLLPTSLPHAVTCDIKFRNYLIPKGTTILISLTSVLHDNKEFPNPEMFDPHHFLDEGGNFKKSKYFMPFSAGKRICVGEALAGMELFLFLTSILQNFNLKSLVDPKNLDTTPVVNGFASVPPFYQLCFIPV
In short: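 Luminescence, after 20 min with luciferin detection reagent, reflected CYP2C9 turnover during a 1 h NADPH-driven reaction at 37C. Enzyme-substrate mix contained 0.4% bovine serum albumin and was preincubated with compound 10 min at room temperature.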

Papain (Carica papaya) = Papain (Carica papaya) (UniProt P00784); assay: Primary qHTS assay for inhibitors of the protease papain (AID 1645873);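 further: papain turnover of Z-FR-AMC read as the AMC fluorescence gain over 10 min; on the % scale 0 is the no-effect control and ±100 the full control effect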
UniProt P00784, sequence (P00784 whole entry, looked up, the tested form may be a part): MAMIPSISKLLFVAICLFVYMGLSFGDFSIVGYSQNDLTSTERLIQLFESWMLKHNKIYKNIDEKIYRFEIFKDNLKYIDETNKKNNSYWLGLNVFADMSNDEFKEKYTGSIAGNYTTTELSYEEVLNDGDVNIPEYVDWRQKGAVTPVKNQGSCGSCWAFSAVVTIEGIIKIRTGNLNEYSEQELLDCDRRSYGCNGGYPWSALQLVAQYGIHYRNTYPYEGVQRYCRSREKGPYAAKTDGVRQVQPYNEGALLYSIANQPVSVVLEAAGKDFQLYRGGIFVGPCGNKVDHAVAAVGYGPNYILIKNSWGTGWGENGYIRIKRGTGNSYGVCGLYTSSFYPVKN

[5] = Primary qHTS for inhibitors of nuclear receptor binding SET domain protein 2 (NSD2) in an RCH-ACV wild type WT cells (2C) (AID 1645877); further: potency means the concentration at half of the fitted maximal effect; nearly all actives have a fitted effect of over 70% in size
[6] = A High-Content qHTS Against Drug Library for the Identification of Small Molecules that Inhibit DYT1 Early Onset Primary Dystonia-Associated Cell Pathology (AID 1645839; calls by dose curve; further: potency means the concentration at half of the fitted maximal effect)
In short: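 In this high-content image screen, delE TorsinA mislocalization in inducible Flp-In 293 cells is scored as %pathology, with cell count serving as the counterscreen. Compound exposure lasts 48 h under tetracycline induction in reduced-serum medium.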

[7] = target: Rap guanine nucleotide exchange factor 3 (Homo sapiens) (UniProt O95398); assay: Confirmatory qHTS for agonist of cAMP-regulated guanine nucleotide exchange factor 3 (EPAC1) (AID 1645881); details: EPAC1 Rap1B BODIPY-GDP exchange fluorescence; further: potency means the concentration at half of the fitted maximal effect; nearly all actives have a fitted effect of over 75% in size
UniProt O95398, sequence (O95398 whole entry, looked up): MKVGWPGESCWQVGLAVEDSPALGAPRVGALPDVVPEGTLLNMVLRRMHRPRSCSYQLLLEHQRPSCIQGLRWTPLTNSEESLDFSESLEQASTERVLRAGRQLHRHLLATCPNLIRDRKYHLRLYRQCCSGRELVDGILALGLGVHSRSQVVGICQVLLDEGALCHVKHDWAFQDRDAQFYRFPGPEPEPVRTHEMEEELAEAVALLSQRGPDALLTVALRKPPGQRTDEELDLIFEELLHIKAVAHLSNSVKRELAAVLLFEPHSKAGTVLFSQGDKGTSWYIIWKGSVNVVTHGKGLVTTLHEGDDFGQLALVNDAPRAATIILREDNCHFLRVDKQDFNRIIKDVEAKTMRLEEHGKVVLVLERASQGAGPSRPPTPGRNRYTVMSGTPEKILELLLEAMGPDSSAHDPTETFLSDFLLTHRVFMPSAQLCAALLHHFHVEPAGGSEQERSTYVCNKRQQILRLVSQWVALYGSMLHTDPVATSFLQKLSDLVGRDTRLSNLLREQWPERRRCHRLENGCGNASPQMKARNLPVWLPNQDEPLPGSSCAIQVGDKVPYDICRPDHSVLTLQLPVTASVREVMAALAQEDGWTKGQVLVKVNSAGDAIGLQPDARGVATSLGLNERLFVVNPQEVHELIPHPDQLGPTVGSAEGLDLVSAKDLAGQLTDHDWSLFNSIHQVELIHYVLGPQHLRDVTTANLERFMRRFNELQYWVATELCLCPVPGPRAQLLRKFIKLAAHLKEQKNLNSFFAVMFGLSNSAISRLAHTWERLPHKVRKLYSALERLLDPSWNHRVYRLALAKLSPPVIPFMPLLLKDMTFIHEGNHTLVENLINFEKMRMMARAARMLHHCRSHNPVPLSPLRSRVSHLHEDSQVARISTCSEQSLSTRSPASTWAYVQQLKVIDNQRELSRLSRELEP

[8] = target: Rap guanine nucleotide exchange factor 4 (Homo sapiens) (UniProt Q8WZA2); assay: Confirmatory qHTS for agonist of cAMP-regulated guanine nucleotide exchange factor 4 (EPAC2) (AID 1645884); details: EPAC2 GEF activity, Rap1B-BODIPY-GDP fluorescence; activation: at 51.3 µM (top of the series), percent relative to cAMP agonist control;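 further: nucleotide exchange releases bodipy-GDP from Rap1 and this lowers its fluorescence; potency means the concentration at half of the fitted maximal effect; nearly all actives have a fitted effect of over 65% in size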
UniProt Q8WZA2, sequence (Q8WZA2 whole entry, looked up): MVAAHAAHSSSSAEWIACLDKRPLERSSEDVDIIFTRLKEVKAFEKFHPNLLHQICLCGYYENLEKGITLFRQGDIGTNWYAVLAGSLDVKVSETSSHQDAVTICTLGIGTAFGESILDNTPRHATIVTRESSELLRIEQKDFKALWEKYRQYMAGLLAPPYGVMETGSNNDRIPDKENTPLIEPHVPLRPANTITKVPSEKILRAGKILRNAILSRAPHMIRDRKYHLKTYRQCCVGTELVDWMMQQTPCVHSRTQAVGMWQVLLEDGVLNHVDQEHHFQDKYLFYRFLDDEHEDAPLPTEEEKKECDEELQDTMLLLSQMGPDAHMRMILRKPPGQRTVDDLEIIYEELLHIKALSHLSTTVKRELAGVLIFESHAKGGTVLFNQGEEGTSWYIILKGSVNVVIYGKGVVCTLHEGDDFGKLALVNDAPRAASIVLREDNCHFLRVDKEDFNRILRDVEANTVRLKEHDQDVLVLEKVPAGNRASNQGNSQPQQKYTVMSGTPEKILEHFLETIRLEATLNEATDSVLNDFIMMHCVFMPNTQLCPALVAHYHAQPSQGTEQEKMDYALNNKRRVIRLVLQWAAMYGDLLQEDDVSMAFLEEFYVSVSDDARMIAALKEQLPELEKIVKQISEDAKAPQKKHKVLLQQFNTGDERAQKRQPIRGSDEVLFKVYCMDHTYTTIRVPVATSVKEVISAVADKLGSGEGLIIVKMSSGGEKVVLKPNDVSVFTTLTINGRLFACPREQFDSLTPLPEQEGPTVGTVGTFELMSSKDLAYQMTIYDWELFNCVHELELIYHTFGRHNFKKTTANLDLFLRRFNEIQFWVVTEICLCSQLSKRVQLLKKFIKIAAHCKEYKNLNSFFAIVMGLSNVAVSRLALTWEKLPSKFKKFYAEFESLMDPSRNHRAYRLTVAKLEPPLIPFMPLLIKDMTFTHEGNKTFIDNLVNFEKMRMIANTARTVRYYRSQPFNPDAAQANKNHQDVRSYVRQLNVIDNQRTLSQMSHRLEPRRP

[9] = target: Rap guanine nucleotide exchange factor 4 (Homo sapiens) (UniProt Q8WZA2); assay: Confirmatory qHTS for antagonist of cAMP-regulated guanine nucleotide exchange factor 4 (EPAC2) (AID 1645885); further: potency means the concentration at half of the fitted maximal effect; nearly all actives have a fitted effect of over 25% in size
[10] = target: Rap guanine nucleotide exchange factor 3 (Homo sapiens) (UniProt O95398); assay: Counterscreen qHTS for agonist of cAMP-regulated guanine nucleotide exchange factor 3 (EPAC1) (AID 1645889); further: potency means the concentration at half of the fitted maximal effect; nearly all actives have a fitted effect of over 40% in size
In short: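 Rap1B-BODIPY-GDP 250 nM + GDP 50 uM; cpds 7-pt, final 9.74 nM–152 uM (activator mode) or from 7.32 nM upwards (inhibitor mode); RT; FI 480/540 nm at 5 and 30 min, then ± cAMP, reread.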
Tags describe the fitted curve by direction and shape.

SMILES: CCCCC(C)(C)[C@H](O)C=C[C@H]1[C@H](O)CC(=O)[C@H]1CC=CCCCC(=O)O
- Potency [1]: inconclusive: 0.168 µM [inhibitor, full curve, poor fit]

SMILES: CN(C[C@@H]1COCCO1)S(=O)(=O)Nc1ccc2ccc3ncc(-c4cnn(C)c4)cc3c(=O)c2c1
- Potency [1]: inconclusive: 5.3 µM [inhibitor, partial curve]
- Potency [2]: inconclusive: 13.5 µM [inhibitor, partial curve, poor fit]
- Potency [3]: active: 5.15 µM

SMILES: Nc1nnc(-c2cccc(Cl)c2Cl)c(N)n1
- Potency [1]: inconclusive: 31.6 µM [inhibitor, partial curve] and inconclusive: 31.6 µM [inhibitor, single point] and inconclusive: 12.6 µM [inhibitor, partial curve, poor fit]
- Potency [2]: inconclusive: 38.9 µM [inhibitor, partial curve, poor fit]
- Potency [4]: inactive
- Potency (Papain (Carica papaya)): inactive

SMILES: CON(C)C(=O)N1N=C(c2cc(F)ccc2F)S[C@]1(CCCN)c1ccccc1
- Potency [1]: inactive

SMILES: CCOC(=O)C1=C(O)C(=O)N(Cc2ccccc2)C1
- Potency [1]: inactive

SMILES: Cc1noc(NS(=O)(=O)c2ccc(N)cc2)c1C
- Potency [1]: inactive
- Potency [2]: inactive
- Potency [4]: inactive
- Potency [3]: inconclusive: 26.6 µM [inhibitor, single point]
- Potency [5]: inconclusive: 26.6 µM [inhibitor, single point]

SMILES: Cc1ncc([N+](=O)[O-])n1CCO
- Potency [1]: inactive and inconclusive: 1.5 nM [inhibitor, full curve]
- Potency [2]: inactive
- Potency [4]: inactive

SMILES: Clc1ccccc1C(c1ccccc1)(c1ccccc1)n1ccnc1
- Potency [1]: inconclusive: 31.6 µM [inhibitor, single point] and inconclusive: 28.2 µM [inhibitor, single point]
- Potency [6]: inconclusive: 11.2 µM [inhibitor, partial curve, poor fit]
- Potency [2]: active: 9.77 µM
- Potency [5]: active: 9.34 µM
- Potency [7]: inconclusive: 56.2 µM [activator, partial curve, poor fit] and inconclusive: 32.7 µM [activator, partial curve, poor fit]
- Potency [8]: inconclusive: 44.6 µM [activator, partial curve, poor fit] and inconclusive: 21.4 µM [activator, partial curve]
- Potency [9]: inconclusive: 3.79 µM [inhibitor, single point] and inconclusive: 9.12 µM [inhibitor, partial curve]
- Potency [10]: inconclusive: 17.8 µM [activator, partial curve, poor fit]

SMILES: COc1ccc(-c2c(-c3ccc(O)cc3O)n[nH]c2C)cc1
- Potency [1]: inactive

SMILES: COc1ccc2cccc(CCNC(C)=O)c2c1
- activity change, negative = inhibition [1]: inconclusive: -34.4% [inhibitor]
- Potency [2]: inconclusive: 19.5 µM [inhibitor, partial curve, poor fit]
- Potency [4]: inconclusive: 13.8 µM [inhibitor, partial curve]
- Potency [3]: inactive

SMILES: O=C(O)C=Cc1ccc(Cn2ccnc2)cc1
- Potency [1]: inconclusive: 0.0298 µM [inhibitor, full curve, poor fit]

SMILES: N#CC(=Cc1ccc(O)c(O)c1)C(=O)NCc1ccccc1
- Potency [1]: inconclusive: 5.3 µM [inhibitor, partial curve, poor fit]

SMILES: Cc1ccc(C(C)(O)c2nc3ccccc3s2)c(C)c1 (stereo not drawn)
- Potency [1]: inactive
- Potency [2]: inconclusive: 19 µM [inhibitor, single point]
- Potency [3]: inconclusive: 23.5 µM [inhibitor, partial curve, poor fit]
- Potency [5]: inconclusive: 23.5 µM [inhibitor, single point]

SMILES: COc1ccccc1N1CCN(CC(O)COc2cccc3ccccc23)CC1 (stereo not drawn)
- Potency [1]: inconclusive: 14.1 µM [inhibitor, single point]
- Potency [6]: inconclusive: 35.5 µM [inhibitor, single point]
- Potency [2]: active: 0.436 µM
- Potency [4]: inconclusive: 1.74 µM [inhibitor, full curve]
- Potency [3]: inconclusive: 33.5 µM [inhibitor, single point] and inconclusive: 16.6 µM [inhibitor, partial curve]
- Potency [5]: inconclusive: 33.5 µM [inhibitor, single point] and inconclusive: 16.6 µM [inhibitor, partial curve, poor fit]
